According to PubChem BioAssay AID1468 (National Center for Advancing Translational Sciences (NCATS), 2008):
The campaign covered roughly 280,000 compounds. About 1,100 (0.39%) were called active. This list was built around the results that the source calls inconclusive (neither active nor inactive); the mix of calls is not that of the screen. Calls follow the shape of the dose curve; as a rule, active = well fitted inhibition curve with a large enough effect; inconclusive = small, poorly fitted or top-dose-only effect, or effect the other way; inactive = flat fitted curve, though single readings scatter. No potency is given beside an inconclusive call; the fits are too rough.

Target: Microtubule-associated protein tau (Homo sapiens) (UniProt P10636)
Chain of UniProt P10636 (P10636 whole entry, looked up): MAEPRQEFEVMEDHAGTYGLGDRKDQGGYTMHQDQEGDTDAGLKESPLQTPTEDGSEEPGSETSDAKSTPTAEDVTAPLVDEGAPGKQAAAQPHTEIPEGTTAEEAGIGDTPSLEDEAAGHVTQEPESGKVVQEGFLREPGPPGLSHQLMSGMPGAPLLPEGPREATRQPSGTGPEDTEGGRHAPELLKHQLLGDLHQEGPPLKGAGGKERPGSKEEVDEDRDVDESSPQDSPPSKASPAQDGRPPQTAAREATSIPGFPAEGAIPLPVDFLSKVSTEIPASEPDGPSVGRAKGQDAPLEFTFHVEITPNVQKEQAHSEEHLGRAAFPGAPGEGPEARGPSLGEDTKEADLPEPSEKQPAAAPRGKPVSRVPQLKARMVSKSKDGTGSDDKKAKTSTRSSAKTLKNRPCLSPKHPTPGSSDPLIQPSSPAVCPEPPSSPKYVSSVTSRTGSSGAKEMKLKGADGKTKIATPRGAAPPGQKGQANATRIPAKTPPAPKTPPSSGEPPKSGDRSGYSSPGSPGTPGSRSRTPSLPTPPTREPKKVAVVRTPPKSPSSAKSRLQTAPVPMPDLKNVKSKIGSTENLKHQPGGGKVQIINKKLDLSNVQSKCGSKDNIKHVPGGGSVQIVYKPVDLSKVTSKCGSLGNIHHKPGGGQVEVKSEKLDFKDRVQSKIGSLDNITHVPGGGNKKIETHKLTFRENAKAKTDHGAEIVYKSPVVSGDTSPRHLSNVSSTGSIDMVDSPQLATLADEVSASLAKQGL
Experiment: qHTS for Inhibitors of Tau Fibril Formation, Fluorescence Polarization; also: nearly all actives have a fitted effect of over 55% in size
Details: K18 P301L tau heparin fibrillization, Alexa594 FP, 6 h; series mostly up to 57.7 µM; activity, negative = inhibition: at the top concentration
Method in brief: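 Human tau K18 […] P301L fragment, 15 uM unlabeled plus 0.24 uM Alexa 594-labeled tau (final), with compound and 20 uM heparin in 100 mM sodium acetate pH 7; 6 hr at 37 C, then Alexa 594 FP read.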
% is scaled to controls: 0 for no effect and ±100 for the full control effect; potency is read from the fitted curve at half-maximal effect; tags tell the direction and shape of the fitted curve.

Row | Structure (SMILES) | Potency | activity, negative = inhibition
1 | COc1cccc(Oc2ccc(C(F)(F)F)cc2NC(=O)c2cccc(F)c2)c1 | inconclusive [inhibitor, single point] | 
2 | CCc1cc2cccc(C)c2nc1SCC(=O)Nc1nonc1C | inconclusive [inhibitor, single point] | 
3 | COc1ccccc1-c1cc(C(=O)Nc2sc3c(c2C#N)CCCC3)no1 | inconclusive [inhibitor, single point] | 
4 | COCCCn1c(SCc2cccc(C(F)(F)F)c2)nc2cc(OC)c(OC)cc2c1=N |  | inactive: 5.16%
5 | Cc1cc(-c2nc(C)c(-c3nnc(SCC(=O)Nc4ccc(Cl)cc4)n3C)s2)no1 | inconclusive [inhibitor, single point] | 
6 | COc1ccc(C2CC(c3c(O)n(C4CCCCC4)c(=O)[nH]c3=O)=Nc3ccccc3S2)cc1 (configuration not stated) |  | inactive: 7.11%
7 | CC(C)CCOc1ncnc2c1sc1nc3c(cc12)CSC(C)(C)C3 |  | inactive: 2.84%
8 | COc1ccccc1N1CCN(S(=O)(=O)c2c(C)sc3ncn(CC(=O)Nc4cccc(Cl)c4)c(=O)c23)CC1 | inconclusive [inhibitor, partial curve] | 
9 | COc1ccccc1NC(=S)NCCc1ccccc1 |  | inactive: -0.629%
10 | O=C1CC(SCCc2nc3ccccc3[nH]2)C(=O)N1c1ccc(Cl)cc1 (configuration not stated) | inconclusive [inhibitor, single point] | 
11 | O=C1CC(C(=O)Nc2ccc(Cl)cc2)n2ncnc2N1 (configuration not stated) |  | inactive: 1.5%
12 | Cc1cccc(NS(=O)(=O)c2ccc3[nH]c(=O)ccc3c2)c1C |  | inactive: -13%
13 | C[C@H]1C(c2cccc(Cl)c2)=NN(c2ccccc2)[C@@H]1CO |  | inactive: 9.79% [at 81.3 µM]
14 | CCOc1ccccc1N1C(=O)CC(Nc2ccc(N3CCOCC3)cc2)C1=O (configuration not stated) |  | inactive: 2.13%
15 | COc1ccc(C(=O)c2cn(CC(=O)Nc3ccc4c(c3)OCCO4)c3ccc(OC)cc3c2=O)cc1 |  | inactive: 12.2%
16 | COc1cc(NC(=O)Cn2c(=O)oc3cc(S(=O)(=O)N4CCCCCC4)ccc32)cc(OC)c1 | inconclusive [inhibitor, partial curve] | 
17 | CC1(C)CC(=O)C(=CN2CCOCC2)C(=O)C1 | inconclusive [inhibitor, single point] | 
18 | Cc1ccc(C(C)C)c(OCC(=O)Nc2cccc(NC(=O)c3ccco3)c2)c1 | inconclusive [inhibitor, partial curve] | 
19 | C=C(C(C)=O)C(O)c1ccco1 (configuration not stated) | inconclusive [inhibitor, partial curve] | 
20 | CC1=Nc2cc(C(=O)NCCc3ccc(Cl)cc3)ccc2Sc2ccc(C)cc21 | inconclusive [inhibitor, single point] | 
21 | O=C1C(NS(=O)(=O)c2cccs2)=C(N2CCN(c3ccccc3)CC2)C(=O)c2ccccc21 | inconclusive [inhibitor, partial curve, poor fit] | 

Row | Structure (SMILES) | Potency | activity, negative = inhibition
22 | C=C(C)c1cccc(C(C)(C)NC(=O)N(Cc2ccccc2)Cc2ccco2)c1 | inconclusive [activator, single point] | 
23 | Cc1ccc(S(=O)(=O)N2CCCc3cc(NS(=O)(=O)c4ccc(F)c(C)c4)ccc32)cc1 | inconclusive [inhibitor, partial curve] | 
24 | COc1ccc(-c2cc(C(F)(F)F)c(C#N)c(SCC(=O)Nc3ccc(F)cc3)n2)cc1 |  | inactive: -21.1%
25 | CC(C)Oc1ccc(CNC(=O)CCCn2c(=O)c3cccn3c3ccccc32)cc1 |  | inactive: 2.4%
26 | COc1ccc(/C=C/C(=O)Nc2c(C(=O)O)[nH]c3ccccc23)cc1OC |  | inactive: 6.84%
27 | Cc1onc(-c2ccc(Cl)cc2Cl)c1-c1csc(N/N=C/c2ccccc2)n1 | inconclusive [activator, full curve, poor fit] | 
28 | CCCCS(=O)(=O)N1CCc2nc(-c3ccc(OC)cc3C)c3c(c2C1)CO[C@@H](c1ccccc1)C3 |  | inactive: -2.14% [at 11.6 µM]
29 | NC(=O)c1cc[n+](CC2=C(C(=O)O)N3C(=O)C(NC(=O)C(c4ccccc4)S(=O)(=O)[O-])C3SC2)cc1 (configuration not stated) | inconclusive [inhibitor, single point] | 
30 | CCOC(=O)c1c(NC(=O)CS(=O)(=O)c2ccc(C)cc2)sc2c1CCCCC2 | inconclusive [inhibitor, single point] | 
31 | CC(=O)c1ccc(NC(=O)c2cn3c4c(ccc(Cl)c4c2=O)OC(C)C3)cc1 (configuration not stated) |  | inactive: 0.187%
32 | Cc1ccc(C2=NN3C(C2)c2ccccc2OC32C(=O)Nc3ccccc32)cc1 (configuration not stated) | inconclusive [inhibitor, single point] | 
33 | COc1ccc(C(=O)Nn2c(SCC(=O)c3ccc(Cl)cc3)nc3ccccc3c2=O)cc1 | inconclusive [inhibitor, single point] | 
34 | FC(F)(F)c1cccc(NC(=S)Nc2ccc(Cl)c(Cl)c2)c1 | active: 22.4 µM | 
35 | Cc1ccc(S(=O)(=O)c2cn(CC(=O)Nc3ccc(C)c(Cl)c3)c3ccc(C)cc3c2=O)cc1 | inconclusive [inhibitor, partial curve, poor fit] | 
36 | CC1CCN(C(c2ccc(N(C)C)cc2)c2nnnn2C(C)(C)C)CC1 (configuration not stated) |  | inactive: -4.25%
37 | CC(C)(C)c1cc(NC(=O)Nc2ccc(Br)cc2Cl)no1 | inconclusive [inhibitor, full curve] | 
38 | NC(=O)c1ccccc1 | inconclusive [inhibitor, partial curve] | 
39 | COc1cc(/C=C(\C#N)c2nc3ccccc3[nH]2)ccc1OC(=O)c1ccco1 | inconclusive [inhibitor, single point] | 
40 | COC(=O)CSc1nnc(CNC(=O)c2ccco2)n1-c1ccc(F)cc1 | inconclusive [inhibitor, single point] | 
41 | COc1ccc(Cl)cc1NC(=O)CSC1=Nc2ccccc2C2=NC(CC(=O)NCc3ccc4c(c3)OCO4)C(=O)N12 (configuration not stated) | inconclusive [activator, partial curve] | 
42 | COc1ccc(-c2c(C)nn3c(N4CCC(C(=O)NCCN(C)C)CC4)cc(C)nc23)cc1OC | inconclusive [activator, single point] | 
